Assay results: the supplement of paper PMC3334620
Over roughly 33,000 sequences, “E-score (-0.5 to 0.5)” has its median near -0.056; the highest 2% begin near 0.38. Some of the results follow.

target: Stb4 (UniProt P50104); assay: PBM E-score (8-mer binding enrichment) (E-score (-0.5 to 0.5)); higher = stronger / more preferred TF binding; most listed sequences are background and not binding sites; settings: protein concentration: 200 nM; construct: GST-DNA-binding domain
How it was run: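 Universal all-10-mer Agilent arrays, fresh or stripped once, were converted to double-stranded form by primer extension. GST-tagged yeast transcription factors from PURExpress in vitro transcription/translation, full-length or DNA-binding domain only, were applied at about 100-200 nM and detected with fluorescent anti-GST. After masliner normalisation, the Universal PBM Analysis Suite scored each ungapped eight-base word together with its reverse complement by E-score.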

Sequence	PBM E-score
GAGTCACC	-0.192
AACTTACT	-0.168
GGAATGCC	0.174
ACGCCAGG	-0.0466
CAGCTAAC	-0.244
CCGATGTC	0.254
TCATCTCA	-0.067
ATATCTTA	-0.103
ACACTGGG	-0.184
CGAGGGCA	0.0943
GCACACGA	-0.128
ATCGCTAA	-0.143
CACCTGTA	-0.173
GGAGGCAC	0.0561
ACTTACCG	0.366
ATACAAAG	0.037
ACACAACG	-0.0126
ATCGGTGC	0.0289
AATCATTC	-0.0237
AACTCGCC	0.00739
ACTAGACC	-0.124
GTGGGTCA	-0.244
AAGGCATA	-0.121
AAGGCAGT	-0.173
AAGCCGTA	0.0243

Sequence	PBM E-score
AGACCGAA	0.244
GAATAGAA	0.0248
CTGCTAAG	-0.138
GATATCGC	-0.0806
ACGCATGG	-0.0652
ACGTACGG	0.173
CCTCAGGA	-0.168
CCTTCTGA	-0.219
ATCTAGAA	-0.117
ACTCTTTC	-0.0797
GCTCGCAA	-0.146
AAAACCCA	-0.0723
ACTGGGTG	-0.115
ACTCGATG	-0.18
CGCAGGGA	-0.216
CAGGCCTG	-0.118
ATAAGCCC	-0.0887
GGATACGA	0.0249
ATATACGG	0.125
CCCCAAAA	-0.108
CTTCGTAA	-0.178
CCTAATAA	-0.202
CATCTAGG	-0.212
ATGATAAA	0.00365
CTGCATTC	0.00558

Sequence	PBM E-score
AAGTCGTC	0.0514
CAACACAC	-0.189
GACAGAGC	-0.122
AGGGAAAA	-0.164
AAAAAGGG	0.0961
AGAGGGTC	-0.234
AACTGGGA	-0.14
GCTACCCA	-0.0281
AGTGTAGA	-0.338
TACCCCTA	-0.137
CGCAAGCG	-0.124
GGTCGGAC	0.144
AGCCGTTC	0.0794
TAGATCTA	-0.187
ATATCAAA	0.0972
TATGCGGA	0.248
ACGGATTC	0.178
CGCACGCA	-0.137
AGCTCGGA	0.454
CAGGGACA	-0.114
GTATTTCA	-0.0703
GCTGGCCA	-0.0829
ACAGACAA	0.0517
CCTACTTA	-0.262
AGACGGGC	0.0785

Sequence	PBM E-score
AAGTCTCT	-0.285
CAATGTGA	-0.241
GAGCTCAC	-0.208
ATCTACAG	0.0365
CGCTGGGA	-0.039
AAATATCG	0.17
TCTGTAAA	0.0311
ACCAAGGT	-0.125
ACCATCCT	-0.249
CACCCCAC	0.0245
AGTGTTGG	0.0126
TAGGAAGA	-0.21
CGTTGTTA	-0.092
GAGGCGCC	-0.0953
CGAGTACG	0.042
CAACTACG	-0.0502
AATCAGCT	-0.0678
CGTGACGC	-0.134
CAAACCCC	-0.0815
AACAGCGT	-0.0731
CTGAGGCC	0.0212
TGCTAGAA	0.029
GTCTCCTA	-0.269
ATTAACTG	-0.117
GATCGGAA	0.425

Sequence	PBM E-score
GATAATGC	-0.0171
GAATAAGC	-0.0696
ACAAAGAA	-0.019
ATCGGTAA	0.336
AGGCACAG	-0.199
AGCCTTGA	-0.0997
CACGGGCG	0.12
CTAGGGTC	-0.226
CAGACACA	-0.186
AGTTGCTA	0.121
CGAGGCAA	0.217
CGAATAAA	0.0743
TCACTCGA	-0.126
AATTATGC	0.0691
GCCTCAGC	-0.219
CCGCCCGG	0.328
GAGCAGTA	0.0469
CATCTATA	-0.101
AATGATCA	-0.176
GCATTCGC	-0.128
TGAGTCAA	-0.0907
AGCCAGCA	-0.264
CTACTTTA	-0.155
CTCGTGTC	-0.196
AACGGTAC	0.172

Sequence	PBM E-score
ATAGCTAA	-0.178
ATGGCTAA	-0.0251
AAACGCGG	0.227
GTTCACGA	-0.107
AAGATTCT	-0.229
GGATGTAC	0.0116
CAGTTCTA	-0.113
CTCTACAG	-0.151
ATTAAGCC	0.252
CTCTGAAA	0.0179
AGCGACCA	-0.219
ACTAGGAA	-0.143
ATCTCCCG	0.332
CGTTAGTC	-0.017
AATTAGGT	-0.0926
CGGACGTA	0.203
CCGCCGAC	0.217
ATCGAATC	0.00298
GCAAATGC	-0.169
ACATGTCC	-0.041
CAGTACAA	-0.117
AAAAGCTT	0.0879
GTACGGGA	0.222
AATCTCAC	-0.106
ATTTCAAG	-0.168

Sequence	PBM E-score
GGCAGTAC	-0.0185
CCATTGGG	-0.255
GTATACAA	-0.045
GCGCATCC	0.133
AAGAGAGA	-0.307
GCCGGTAC	0.134
CATCCTCA	-0.154
AATTCCAG	0.00849
AATTTAAG	-0.0441
CAGTGATA	-0.0876
GAATACAA	0.129
GCGAAAGA	-0.166
AGCGAAAT	0.0212
CGTTGCGC	-0.00815
GACAAAAA	0.127
CGAAGGTC	0.189
ATCGGGGG	0.195
ATTGGCTC	-0.0924
ACGCCCTC	-0.0266
ATCTATGG	-0.184
AATGGGTG	0.0109
ATACTTGG	-0.115
